# Measurements: PubChem BioAssay AID588591 (National Center for Advancing Translational Sciences (NCATS), 2011)
# About 4,700 (1.2%) of roughly 390,000 compounds were called active. Inconclusive results (about 4%) are left out. Calls come from the whole dose curve; as a rule, active = well fitted inhibition curve with a large enough effect; inconclusive = small, poorly fitted or top-dose-only effect, or another doubt; inactive = no such curve, though single readings can be large or run the other way. The entries are a selection whose mix differs from that of the whole data set. Some structures have more than one record in an assay (separate samples or runs), and their calls can disagree.
# Target: DNA polymerase eta (Homo sapiens) (UniProt Q9Y253)
# UniProt Q9Y253, sequence (Q9Y253 whole entry, looked up): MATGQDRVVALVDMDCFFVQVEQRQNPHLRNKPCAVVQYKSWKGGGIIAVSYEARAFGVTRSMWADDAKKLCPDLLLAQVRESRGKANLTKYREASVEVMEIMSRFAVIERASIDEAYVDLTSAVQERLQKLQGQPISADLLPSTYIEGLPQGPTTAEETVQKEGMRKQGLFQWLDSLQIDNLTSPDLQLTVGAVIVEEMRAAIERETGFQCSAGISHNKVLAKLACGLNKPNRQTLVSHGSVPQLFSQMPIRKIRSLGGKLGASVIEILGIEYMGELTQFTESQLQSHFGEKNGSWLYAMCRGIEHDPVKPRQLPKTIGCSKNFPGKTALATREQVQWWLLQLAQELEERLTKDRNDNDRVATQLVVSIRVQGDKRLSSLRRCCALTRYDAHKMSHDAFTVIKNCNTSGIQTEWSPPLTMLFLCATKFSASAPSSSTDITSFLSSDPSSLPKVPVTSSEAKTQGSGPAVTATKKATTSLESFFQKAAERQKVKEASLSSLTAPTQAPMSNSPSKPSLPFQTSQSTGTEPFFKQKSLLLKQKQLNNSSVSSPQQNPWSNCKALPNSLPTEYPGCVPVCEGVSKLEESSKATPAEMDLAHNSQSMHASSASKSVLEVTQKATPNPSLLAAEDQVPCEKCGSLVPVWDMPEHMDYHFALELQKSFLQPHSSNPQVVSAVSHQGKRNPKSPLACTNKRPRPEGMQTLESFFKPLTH
# Assay: qHTS for Inhibitors of Polymerase Eta
# Conditions: recombinant Pol eta, fluorescent DNA replication assay; series mostly up to 114 µM; activity change, negative = inhibition: at the top concentration
# Procedure, shortened: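 Pol eta at 10 nM preincubated with compounds 15 min at room temperature; reaction started with fluorescent substrate (50 nM final) and read kinetically at 0 and 10 min.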
# % is set by controls: 0 for no effect and ±100 for the full control effect; potency is the fitted concentration of half-maximal effect.
SMILES,Potency,"activity change, negative = inhibition"
O=C(CCN1CCN(c2ccccc2)CC1)N/N=C/c1ccc(O)c(O)c1O,active: 22.4 µM,–
N#C/C(=C\c1cccc([N+](=O)[O-])c1)c1nnc2n1CCCCC2,–,inactive: -23.2%
CNc1ccc(Br)cc(C(=O)/C=C/c2ccc3c(c2)OCO3)c1=O,active: 10 µM,–
Cc1cc(C)c(CN2CCN(C(=O)Cn3ccc(NC(=O)OCc4ccccc4)nc3=O)CC2)c(C)c1,–,inactive: 22.5%
CCCCCCN1C[C@H](n2cc(C3CC3)nn2)[C@@H](O)C[C@@H]1c1ccccc1,–,inactive: -25.3%
CCCCCn1c(SCC(=O)c2ccccc2)nc2cc(C(=O)NCC3CCCO3)ccc2c1=O (configuration not stated),–,inactive: 32.9%
COc1ccc2c(c1)sc1nc(=O)ccn12,–,inactive: -3.38%
CCCCCCSc1ccc([C@@H]2[C@@H]3C(=O)N(CC)C(=O)[C@@H]3[C@]3(C(=O)OC)CCCCN23)cc1OC,–,inactive: -15.2%
CCOc1cc(/C=C2/C(=O)ON=C2C)ccc1OCc1ccccc1,–,inactive: -26.1%
Cc1ccc(C)c(N2CCN(C(=O)c3cc(S(=O)(=O)N4CCCC4)cn3C)CC2)c1,–,inactive: -9.86%
CCCc1ccc(OCC(O)CN2CCN(c3ccccc3)CC2)cc1 (configuration not stated),–,inactive: -18.6%
CN(CC(=O)N1CCN(c2ccccc2F)CC1)S(=O)(=O)c1cnc[nH]1,–,inactive: 15.1%
O=C(CCNC(=O)Cn1ccc2ccccc2c1=O)NCCN1CCN(c2cccc(Cl)c2)CC1,–,inactive: -6.5%
C=CC[C@H](CC(=O)OC(C)(C)C)C(=O)OC[C@H]1CCCN1C(=O)[C@H](CC=C)CC(=O)N(CCO)Cc1ccccc1,–,inactive: -16.9%
COc1cc(C(=S)N2CCOCC2)ccc1OC(=O)/C=C/c1ccco1,–,inactive: 50.6%
CC(=O)c1ccc(N2CCN(c3ccc4cc(S(=O)(=O)N5CCC(C)CC5)ccc4n3)CC2)cc1,–,inactive: -8.77%
C=CC[C@H](CC(=O)N(CCO)Cc1ccccc1)C(=O)N[C@H](COC(=O)[C@@H](CC=C)CC(=O)OC(C)(C)C)Cc1c[nH]c2ccccc12,–,inactive: -21.5%
Cc1cc(-c2nnc(SCC(=O)Nc3ccccn3)o2)no1,–,inactive: 15.8%
O=C1NC(=S)N/C1=C\c1cccnc1,–,inactive: -8.51%
COc1ccc(C(=O)CSc2cc(C)[nH]c(=O)n2)cc1,active: 20 µM,–
O=C(/C=C/c1ccco1)NC(=S)Nc1ccccc1O,–,inactive: -8.21%
CNC(=O)NNC(=O)c1csc(Cc2c(Cl)sc3ccc(Cl)cc23)n1,–,inactive: 18.3%
CC(/C=C1\SC(=S)N(C(C(=O)O)C(C)C)C1=O)=C\c1ccccc1 (configuration not stated),–,inactive: -31.7%

SMILES,Potency,"activity change, negative = inhibition"
CCc1c(C)nc(Nc2nc(C)c3ccc(OC)cc3n2)[nH]c1=O,–,inactive: 20.1%
Cc1cccc(NC(=O)Nc2ccccn2)c1C,–,inactive: 40.1%
N#Cc1cc2nc(O)c(O)nc2cc1[N+](=O)[O-],–,inactive: 2.63%
CCC(C(=O)NC1CCCCC1)n1c(SCc2ccccc2F)nc2ccncc21 (configuration not stated),–,inactive: -23.4%
C=CCOC(=O)C1=C[C@H](c2csc3ccccc23)[C@@H](CCCO)[C@H](OCC)O1,–,inactive: -19.8%
N[C@@H](Cc1cc(I)c(Oc2ccc(O)c(I)c2)c(I)c1)C(=O)O,–,inactive: -7.58%
COc1ccc(NS(=O)(=O)c2cccc(C(=O)N/N=C(/C)c3ccc(-n4ccnc4)cc3)c2)cc1,–,inactive: -14.4%
O=C(Cc1ccc(S(=O)(=O)N2CCOCC2)s1)NC1CCCCC1,active: 20 µM,–
O=C(N/N=C/c1ccc(F)cc1)c1cc(-c2ccco2)nc2ccccc12,active: 1.58 µM,–
C=CCn1c(SCC(=O)c2ccc(O)c(O)c2)nnc1-c1cccnc1,active: 3.98 µM,–
COc1ccc(OC)c(/C=N/NC(=O)c2[nH]nc3c2CCc2ccccc2-3)c1,–,inactive: 16.7%
O=C(CSc1nc(=O)n2ccccc2n1)OCc1ccccc1,–,inactive: -12.4%
COC(=O)c1ccc(NC(=O)CCS(=O)(=O)c2ccc(Br)cc2)cc1,–,inactive: -14.7%
COc1cc2nc(Nc3ccc(C)c(C)c3)nc(N)c2cc1OC,–,inactive: -24.3%
CCCCN(C(=O)c1ccco1)C1CCS(=O)(=O)C1 (configuration not stated),–,inactive: 3.05%
COc1ccc(-c2nn(-c3ccccc3)cc2/C=C2/SC(=S)N(CCC(=O)O)C2=O)cc1,active: 22.4 µM,–
NS(=O)(=O)c1cc2c(cc1Cl)NC(C1CC3C=CC1C3)NS2(=O)=O (configuration not stated),inactive,–
Cc1cc(NC(=O)c2cnn3c(C(F)(F)F)cc(-c4ccccc4)nc23)no1,–,inactive: -11.7%
Cc1ccc2c(C)nc(Nc3nc(CSc4nnc(C)s4)cc(=O)[nH]3)nc2c1,–,inactive: 29.1%
Cc1ccc(C(=O)c2c(C)oc3c2C(=O)C(=O)c2ccccc2-3)cc1,active: 44.7 µM,–
Ic1ccc(N2CCN(Cc3c[nH]c4ncccc34)CC2)cc1,–,inactive: -18.4%
CCN(CC)S(=O)(=O)c1ccc(N2CCOCC2)c(NC(=O)c2c3c(nc4ccccc24)CCC3)c1,active: 35.5 µM,–
C=CCC[C@H](Cc1ccc(F)cc1)C(=O)OC[C@@H](Cc1c[nH]c2ccccc12)NC(=O)[C@H](CC=C)CC(=O)N(CCO)Cc1ccccc1,–,inactive: -21.8%

SMILES,Potency,"activity change, negative = inhibition"
COc1cccc2c1C(=O)c1c(O)c3c(c(O)c1C2=O)C[C@@](O)(C(C)=O)C[C@@H]3O[C@H]1C[C@H](N)[C@H](O)[C@H](C)O1,–,inactive: -12.1%
C=CCC[C@@H](Cc1ccc(F)cc1)C(=O)OC[C@@H]1CCCN1C(=O)[C@H](CC=C)CC(=O)N[C@H](CO)Cc1ccccc1,–,inactive: -30.5%
CCCN(CC(=O)Nc1ccccc1C)C(=O)c1ccc(S(=O)(=O)N2CCCC2)cc1,–,inactive: -2.17%
C/C(=N\NC(=O)c1ccc(-c2ccccc2)cc1)C1C(=O)c2ccccc2C1=O,active: 31.6 µM,–
COc1ccc(CC(=O)N/N=C/C=C/c2ccc3c(c2)OCO3)cc1OC,–,inactive: 30.4%
CC(=O)Nc1ccc(NC(=S)NC(=O)/C=C/c2ccco2)cc1,active: 28.2 µM,–
Oc1ccc(-c2nc(-c3ccc(F)cc3)c(-c3ccncc3)[nH]2)cc1,–,inactive: -19.8%
OCC[C@@H]1C[C@H](O)[C@@H](O)[C@]2(CCCc3ccccc3O2)O1,–,inactive: 7.59%
COc1ccc2ccc3c(c2c1)N=CC1(O3)N(C)c2ccccc2C1(C)C (configuration not stated),–,inactive: -17.5%
Cc1ccc(N(CC(=O)N2CCN(c3ccc(F)cc3)CC2)S(=O)(=O)c2c(C)noc2C)cc1,–,inactive: -21.9%
CC(=O)C[C@H](O)CC(=O)[C@@H]1OC(=O)[C@H](C)C/C=C\Cc2ccccc21,–,inactive: -8%
CCc1ccc(NC2=CC(=O)C(=O)c3ccccc32)cc1,active: 50.1 µM,–
COc1ccc(NC(=O)CN(C)C(=O)c2cc3c(s2)CCC3)cc1,active: 3.16 µM,–
O=[N+]([O-])c1cc2ccccc2c(O)c1O,active: 4.47 µM,–
CCCCN(CC)CCNC(=O)CCC(=O)Nc1ccc2nc(N3CCN(C)CC3)cc(C)c2c1,–,inactive: 36.9%
FC(F)(F)c1cc(-c2ccco2)nc(NCc2ccco2)n1,active: 50.1 µM,–
Cc1cc(C(=O)N/N=C/c2ccc([N+](=O)[O-])cc2)c2ccccc2n1,–,inactive: 27.4%
Oc1c(Br)cc(/C=N/Nc2ccc(Cl)nn2)cc1Br,active: 22.4 µM,–
CCc1cc(=O)oc2cc(C)c(CN3CCCC(C)C3)c(O)c12 (configuration not stated),active: 35.5 µM,–
Cc1cccc(NC(=O)COC(=O)CNC(=O)C2CCCCC2)c1,–,inactive: 4.91%
Cc1cc(C(=O)Nc2sc3c(c2C#N)CCC3)no1,active: 79.4 µM,–
COc1ccc(-c2ccc3c(N)c(C(=O)c4ccc(OC)c(OC)c4)sc3n2)cc1,–,inactive: -18.8%
CCOc1ccc(NC(=O)C2CCC(CNc3c(N4CCCCC4)c(=O)c3=O)CC2)cc1 (configuration not stated),–,inactive: 32.9%

SMILES,Potency,"activity change, negative = inhibition"
CN(C)Cc1cccc([N+](=O)[O-])c1O,–,inactive: 31%
C=CC[C@@H](CC(=O)N(CCO)Cc1ccccc1)C(=O)N[C@H](COC(=O)[C@@H](CC=C)CC(=O)OC(C)(C)C)Cc1c[nH]c2ccccc12,–,inactive: -29.7%
COc1ccc(NC(=O)/C(=C\c2ccc3c(c2)OCO3)NC(C)=O)cc1,–,inactive: 7.38%
Cc1ccc(C)c(NC(=O)Cn2nnc(-c3ccc(N4CCOCC4)cc3)n2)c1,–,inactive: 15.5%
COc1cc(OC)cc(C(=O)NC(C(=O)OCn2nnc3ccccc3c2=O)C(C)C)c1 (configuration not stated),–,inactive: -15.1%
Cc1ccc2c(Cl)cc(Cl)c(OCC(=O)NC(C)(C)C)c2n1,–,inactive: 31.7%
O=C(/C=C/c1ccco1)Nc1ccccc1C(=O)Nc1cccc(C(=O)O)c1,active: 17.8 µM,–
Cc1ccc(-c2nc(SCc3ccc(Br)cc3)n3[nH]c(=O)cc3n2)cc1,active: 20 µM,–
CCCc1cc2c(-c3ccccc3)cc(=O)oc2cc1OCc1ccc(C(=O)O)o1,active: 79.4 µM,–
CCCCc1nn2c(=O)cc(COC(=O)c3ccc(NC(=O)C4CCCCC4)cc3)nc2s1,–,inactive: 19.4%
O=C(Nc1ccc(Br)cn1)c1cccc2c1-c1ccccc1C2=O,–,inactive: 26.7%
Cc1ccc(NC(=O)C(=O)NCC2CCCO2)cc1C (configuration not stated),–,inactive: 32.8%
O=C(Cn1cnc2scc(-c3ccccc3)c2c1=O)NCc1ccco1,active: 22.4 µM,–
Cc1ccc2c(c1)sc1nc(=O)n(-c3cccc(Cl)c3)c(=O)n12,–,inactive: -11.5%
C[c-]1[c-](C)[c-](C)[c-](C)[c-]1C.[Fe].c1cc2nccc(N3CCCC3)[c-]2c1 (configuration not stated),active: 20 µM,–
CC1=Nc2ccccc2/C1=C\c1nc(-c2ccc(C(F)(F)F)cc2)oc1O,–,inactive: 54.7%
Cn1c(=O)c2ncn(CC(=O)Nc3cccc(-c4nc5ccccc5s4)c3)c2n(C)c1=O,–,inactive: 4.93%
O=C(O)c1cc(O)c2c(c1)[C@@H]([C@H]1c3cc(C(=O)O)cc(O)c3C(=O)c3c(O[C@@H]4O[C@H](CO)[C@@H](O)[C@H](O)[C@H]4O)cccc31)c1cccc(OC3O[C@H](CO)[C@@H](O)[C@H](O)[C@H]3O)c1C2=O (some centres not stated),–,inactive: -99.8%
Cc1nc2c(oc3ccc(Cl)cc32)c(=O)[nH]1,–,inactive: 34.1%
CC(=O)N1CCc2c(sc(NC(=O)CSc3ccc(C)cc3)c2-c2nc3ccccc3s2)C1,–,inactive: 16.9%
COc1ccccc1/C=C/C=c1\sc2nc(=O)c(Cc3ccccc3)nn2c1=O,active: 20 µM,–
O=C(CN1C(=O)/C(=C/c2ccco2)SC1=S)Nc1ccc(C(=O)O)c(O)c1,active: 3.55 µM,–
COc1ccc(C2c3sc(=O)[nH]c3SCC2C(N)=O)cc1 (configuration not stated),–,inactive: 46.6%
